{
  "source": "paper PMC11995724",
  "about": "“Antibiotic target discovery by integrated phenotypic and activity-based profiling of electrophilic fragments” (Cell chemical biology, 2025)",
  "note": "The campaign covered roughly 3,200 compounds. About 110 (3.4%) showed an effect of 50% or more. Some of the results follow.",
  "data": [
    {"system": "T1, V. cholerae SAD30", "T1 construct": "SAD30", "parameters": "species or system S. aureus MSSA476 (TSB) or V. cholerae SAD30 (LB); 384-well bacterial growth screen at 25 uM, OD600 relative to DMSO control", "conditions": "25 µM; inhibitor", "units": {"% of control remaining": "%"}, "values": [
      {"molecule": "CC(Cl)C(=O)c1ccc(Cl)cc1", "note": "(stereo not shown) [10-O04, 2-chloro-1-(4-chlorophenyl)propan-1-one]", "% of control remaining": 91.1748},
      {"molecule": "CCn1c(-c2ccccc2)c(C(=O)CCl)c2ccccc21", "note": "[10-E12, 2-chloro-1-(1-ethyl-2-phenyl-1H-indol-3-yl)ethan-1-one]", "% of control remaining": 97.5648},
      {"molecule": "C=CC(=O)Nc1ccc(C(=O)N2CCC3(CC2)OCCCO3)cc1", "note": "[2-D16, N-(4-{1,5-dioxa-9-azaspiro[5.5]undecane-9-carbonyl}phenyl)prop-2-enamide]", "% of control remaining": 88.6519},
      {"molecule": "N#Cc1ccc(NC(=O)CCl)cc1Cl", "note": "[4-N03, 2-chloro-N-(3-chloro-4-cyanophenyl)acetamide]", "% of control remaining": 132.672}
    ]}
  ]
}
